Experimental data from the supplement of paper PMC12067230.
Single values of this set are uncertain.

Experiment: amyloid nucleation score relative to library mode (yeast Sup35 reporter selection) (log enrichment difference); higher = more amyloid nucleation; sequences are the first 22 residues of the Bri2 peptide extended by up to 12 random residues
Settings: random library (experiment): 1;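 active = nucleation score significantly above 0 at FDR 0.05; inactive = not significantly above 0 or absent from output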
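Note: [psi-pin-] Saccharomyces cerevisiae expressing SupN fusions, induced by 100 µM Cu2SO4, selected 7 d at 30 °C without adenine and uracil, scored by deep sequencing of output versus input.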

| Sequence | amyloid nucleation score |
| --- | --- |
| EASNCFAIRHFENKFAVETLICVRLWRQGDRRLG | inactive |
| EASNCFAIRHFENKFAVETLICAKRKGATTRRCL | inactive |
| EASNCFAIRHFENKFAVETLICANIA | inactive |
| EASNCFAIRHFENKFAVETLICTMCSSTLVGKVY | inactive |
| EASNCFAIRHFENKFAVETLICCGDSSQCSWHTT | 7.93 |
| EASNCFAIRHFENKFAVETLICLVLSVAHKRVRF | inactive |
| EASNCFAIRHFENKFAVETLICFSGAPSVCRRPG | 4.12 |
| EASNCFAIRHFENKFAVETLICMLDNSHGWRCPL | 2.9 |
| EASNCFAIRHFENKFAVETLICLDMGDWRNTCCW | 8.3 |
| EASNCFAIRHFENKFAVETLICAKGFFRSEAVS | inactive |
| EASNCFAIRHFENKFAVETLICGESCSDSEGYDR | inactive |
| EASNCFAIRHFENKFAVETLICWVWCSRWGYESK | inactive |
| EASNCFAIRHFENKFAVETLICKMGYLIGLSVCH | inactive |
| EASNCFAIRHFENKFAVETLICVATFICC | inactive |
| EASNCFAIRHFENKFAVETLICVANVAKLLGRGY | inactive |
| EASNCFAIRHFENKFAVETLICICKLRLQLTCLD | inactive |
| EASNCFAIRHFENKFAVETLICATWHFWRCDTSD | inactive |
| EASNCFAIRHFENKFAVETLICDLSWARCKAGVP | inactive |
| EASNCFAIRHFENKFAVETLICVFGEYSSWNQLG | 5.06 |
| EASNCFAIRHFENKFAVETLICLPLEHEGHEGCM | inactive |
| EASNCFAIRHFENKFAVETLICAYAVRSVCTTGV | inactive |
| EASNCFAIRHFENKFAVETLICELSFRWWSCRSY | inactive |
| EASNCFAIRHFENKFAVETLICTSVSRGAFGRAG | 5.43 |
| EASNCFAIRHFENKFAVETLICRMLRSVRTFAGH | inactive |
| EASNCFAIRHFENKFAVETLICPEAMSMFGGCEE | inactive |
| EASNCFAIRHFENKFAVETLICEV | -0.321 |

| Sequence | amyloid nucleation score |
| --- | --- |
| EASNCFAIRHFENKFAVETLICVFVFRWVLFHKP | inactive |
| EASNCFAIRHFENKFAVETLICGSSLGGNRMSEW | inactive |
| EASNCFAIRHFENKFAVETLICISSLR | -0.469 |
| EASNCFAIRHFENKFAVETLICCQKSRGSANVQT | -0.288 |
| EASNCFAIRHFENKFAVETLICGLWPGMEEATRR | 7.58 |
| EASNCFAIRHFENKFAVETLICRTVFTSIEDCAA | inactive |
| EASNCFAIRHFENKFAVETLICRFRFCAC | 5.33 |
| EASNCFAIRHFENKFAVETLICGMNVSSVGVLAW | 0.0198 |
| EASNCFAIRHFENKFAVETLICEY | inactive |
| EASNCFAIRHFENKFAVETLICARVV | inactive |
| EASNCFAIRHFENKFAVETLICVDRSFQYQSVLT | inactive |
| EASNCFAIRHFENKFAVETLICWAMASAQGARTG | 3.52 |
| EASNCFAIRHFENKFAVETLICVLQGCPLLRAGS | inactive |
| EASNCFAIRHFENKFAVETLICINMSIIAVSWML | 0.498 |
| EASNCFAIRHFENKFAVETLICPWLNCSRQVFVG | inactive |
| EASNCFAIRHFENKFAVETLICHWA | 5.23 |
| EASNCFAIRHFENKFAVETLICHNGMPHLSILSF | inactive |
| EASNCFAIRHFENKFAVETLICVPQGRYGCYGWQ | inactive |
| EASNCFAIRHFENKFAVETLICGSLRLGWSGCDA | 7.95 |
| EASNCFAIRHFENKFAVETLICVRRPIKMAPWLG | inactive |
| EASNCFAIRHFENKFAVETLICCSCVWSEWIQGS | 8.72 |
| EASNCFAIRHFENKFAVETLICRIGHPRHVLWQS | -0.0194 |
| EASNCFAIRHFENKFAVETLICYEGVAQSVRESG | inactive |
| EASNCFAIRHFENKFAVETLICKKRRTVRISLRV | inactive |
| EASNCFAIRHFENKFAVETLICLMLHPGHFWRSR | 3.6 |

Same assay, conditions: random library (experiment): 2

| Sequence | amyloid nucleation score |
| --- | --- |
| EASNCFAIRHFENKFAVETLICVVTS | inactive |
| EASNCFAIRHFENKFAVETLICFSYLLSRDGSFV | inactive |
| EASNCFAIRHFENKFAVETLICPFEYINHMSWRA | -0.419 |
| EASNCFAIRHFENKFAVETLICPQLSSKYLIMGI | inactive |
| EASNCFAIRHFENKFAVETLICECLRTVM | inactive |
| EASNCFAIRHFENKFAVETLICMESMKVGILDQS | inactive |
| EASNCFAIRHFENKFAVETLICRASMLSGQKLL | inactive |
| EASNCFAIRHFENKFAVETLICHSLSHRIGYACV | inactive |
| EASNCFAIRHFENKFAVETLICIRPR | inactive |
| EASNCFAIRHFENKFAVETLICCYFNSCKVLTVN | 3.94 |
| EASNCFAIRHFENKFAVETLICKQMN | inactive |
| EASNCFAIRHFENKFAVETLICPDFFYPCVLDWG | inactive |
| EASNCFAIRHFENKFAVETLICVRELSLCLCIWR | 4.75 |
| EASNCFAIRHFENKFAVETLICLMSMYTSFIVFT | 0.923 |
| EASNCFAIRHFENKFAVETLICVIGVGPVSGLGM | 6.92 |
| EASNCFAIRHFENKFAVETLICCALNIVKMPIVL | 6.18 |
| EASNCFAIRHFENKFAVETLICTSNNVHMSGWRR | inactive |
| EASNCFAIRHFENKFAVETLICLSYVDC | 4.84 |

| Sequence | amyloid nucleation score |
| --- | --- |
| EASNCFAIRHFENKFAVETLICLLIIRCMTGIYD | inactive |
| EASNCFAIRHFENKFAVETLICGSSFIYSYGYRG | 3.4 |
| EASNCFAIRHFENKFAVETLICLLLNQVGISYKF | 0.908 |
| EASNCFAIRHFENKFAVETLICGYV | inactive |
| EASNCFAIRHFENKFAVETLICMTCSRFRDKGLE | 4.82 |
| EASNCFAIRHFENKFAVETLICYTGVSRLGRGLR | 3.68 |
| EASNCFAIRHFENKFAVETLICGVGSK | 3.41 |
| EASNCFAIRHFENKFAVETLICNRLCYMFRIVIG | inactive |
| EASNCFAIRHFENKFAVETLICLNQCVNACMCFS | 5.42 |
| EASNCFAIRHFENKFAVETLICDYETLRS | inactive |
| EASNCFAIRHFENKFAVETLICMFFNFDDFVASS | 5.3 |
| EASNCFAIRHFENKFAVETLICFYFLGECLYYVY | inactive |
| EASNCFAIRHFENKFAVETLICNNWPTFISFGNR | 8.26 |
| EASNCFAIRHFENKFAVETLICCGVFIVFPGACW | 4.44 |
| EASNCFAIRHFENKFAVETLICVIFRF | 4.1 |
| EASNCFAIRHFENKFAVETLICWVYNSDIRFAYA | inactive |
| EASNCFAIRHFENKFAVETLICTWDGIRTSTNWR | 1.34 |

Same assay, conditions: random library (experiment): 3

| Sequence | amyloid nucleation score |
| --- | --- |
| EASNCFAIRHFENKFAVETLICYLHVSGYLSITM | 0.00905 |
| EASNCFAIRHFENKFAVETLICPYETSGSNQGYW | inactive |
| EASNCFAIRHFENKFAVETLICGTRFKGCYVGVW | inactive |
| EASNCFAIRHFENKFAVETLICETVYRSLGQTSN | inactive |
| EASNCFAIRHFENKFAVETLICMFKVGIYPFQND | 0.426 |
| EASNCFAIRHFENKFAVETLICAFMCFWSSSSLH | inactive |
| EASNCFAIRHFENKFAVETLICGDADYTFGAAYA | inactive |
| EASNCFAIRHFENKFAVETLICVVMRLYRWVHAH | inactive |
| EASNCFAIRHFENKFAVETLICDFAPNCEQSMDR | inactive |
| EASNCFAIRHFENKFAVETLICHHVVVHTRYCVM | 4.13 |
| EASNCFAIRHFENKFAVETLICWQTVETMFLPGE | 0.739 |
| EASNCFAIRHFENKFAVETLICYVLTGCAVRKGL | inactive |
| EASNCFAIRHFENKFAVETLICGDPCTESGLIWQ | inactive |
| EASNCFAIRHFENKFAVETLICHYRRLTCFHVMT | inactive |
| EASNCFAIRHFENKFAVETLICWCAFMGQKPPCG | inactive |
| EASNCFAIRHFENKFAVETLICVYSVFLFYSFLE | 0.551 |
| EASNCFAIRHFENKFAVETLICLYLRMFFEGSLS | inactive |

| Sequence | amyloid nucleation score |
| --- | --- |
| EASNCFAIRHFENKFAVETLICWSHKCALLHGKW | inactive |
| EASNCFAIRHFENKFAVETLICRLR | inactive |
| EASNCFAIRHFENKFAVETLICCFPMVI | 7.17 |
| EASNCFAIRHFENKFAVETLICFKFTCSLNVIDV | 4.72 |
| EASNCFAIRHFENKFAVETLICLLMV | inactive |
| EASNCFAIRHFENKFAVETLICGRSCAYPRRCGV | 2.83 |
| EASNCFAIRHFENKFAVETLICTI | inactive |
| EASNCFAIRHFENKFAVETLICALMFRCERRRLT | inactive |
| EASNCFAIRHFENKFAVETLICWLNTIGVRLGCE | inactive |
| EASNCFAIRHFENKFAVETLICERRRLGWEGTTL | 1.15 |
| EASNCFAIRHFENKFAVETLICFGRPRYCRRVFM | 3.35 |
| EASNCFAIRHFENKFAVETLICYLIESHYHNFLT | inactive |
| EASNCFAIRHFENKFAVETLICVFWPSLSPSVLS | 1.19 |
| EASNCFAIRHFENKFAVETLICVFQGSKLFASMT | 2.45 |
| EASNCFAIRHFENKFAVETLICGFASDNMVCSLW | 7.42 |
| EASNCFAIRHFENKFAVETLICVWDRTF | -0.0354 |
